{
  "source": "the supplement of paper PMC4604168 (melanoma cell lines)",
  "note": "This is one part of the list. Single values are uncertain, as repeats are few or missing.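 Further: cell number obtained by counting DAPI-stained nuclei in high-throughput microscope images with image analysis software, screen run in 1,536-well plates.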",
  "data": [
    {"tested_on": "WM3619", "assay": "cell count relative to DMSO control; melanoma cells; higher = more viable cells", "details": "library dose: low library concentration; 72 h", "units": {"cell count": "%"}, "values": [
      {"compound": "C[C@]12O[C@H](C[C@]1(O)CO)n1c3ccccc3c3c4c(c5c6ccccc6n2c5c31)CNC4=O", "note": "[Lestaurtinib] + O=C(Oc1ccc([N+](=O)[O-])cc1)N1CCC(C(O)(c2ccc3c(c2)OCO3)c2ccc3c(c2)OCO3)CC1 [JZL184] (first compound 0.004 µM, partner dose 1 µM)", "cell count": 113},
      {"compound": "C[As](C)SC[C@H](NC(=O)CC[C@H](N)C(=O)O)C(=O)NCC(=O)O", "note": "[Darinaparsin] + Cc1cc([N+](=O)[O-])ccc1NS(=O)(=O)c1cc(Cl)ccc1Cl [FH535] (first compound 0.4 µM, partner dose 1 µM)", "cell count": 94.6},
      {"compound": "C[C@]12O[C@H](C[C@]1(O)CO)n1c3ccccc3c3c4c(c5c6ccccc6n2c5c31)CNC4=O", "note": "[Lestaurtinib] + CN(C)S(=O)(=O)c1ccc2c(c1)/C(=C/c1cc3c([nH]1)CCCC3)C(=O)N2 [SU6656] (first compound 0.004 µM, partner dose 0.4 µM)", "cell count": 102},
      {"compound": "Cn1cc(C2=C(c3cn(C4CCN(Cc5ccccn5)CC4)c4ccccc34)C(=O)NC2=O)c2ccccc21", "note": "[Enzastaurin] + CNC(=O)c1cc(Oc2ccc(NC(=O)Nc3ccc(Cl)c(C(F)(F)F)c3)cc2)ccn1 [sorafenib] (first compound 0.8 µM, partner dose 0.4 µM)", "cell count": 104},
      {"compound": "C[C@]12O[C@H](C[C@]1(O)CO)n1c3ccccc3c3c4c(c5c6ccccc6n2c5c31)CNC4=O", "note": "[Lestaurtinib] + CCCCCCCCCCCC1=C(O)C(=O)C=C(O)C1=O [Embelin] (first compound 0.004 µM, partner dose 1.2 µM)", "cell count": 77.1}
    ]}
  ]
}
